In the supplement of paper PMC10441789:
Some of the results follow. Antibody binding of pooled human sera (four to six donors per pool; dilution not stated) to peptides of the Trypanosoma cruzi antigen TSSA on microarrays. Quantile-normalised fluorescence in arbitrary units, mean of duplicate arrays; higher = more binding. No active / inactive call. The uninfected pools are read here as the healthy donors of the same country. The strongest signals lie near the top of the scale (about 60,000).

The sequences below were run on pooled sera of uninfected people, Colombia (assay: antibody binding signal (normalised fluorescence) (arbitrary fluorescence units); higher = stronger serum antibody binding to peptide).
Protocol: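 Microarray of 15-residue peptides over residues 30-55 of Trypanosoma cruzi TSSAII, each with 1 to 10 substitutions at naturally variable positions, probed with one serum pool per country.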

Sequence	antibody binding signal
GKDNKPAAGEAPSQS	187
TENKPAAGETPSQPG	286
EKKAATGGAPSQSGA	1070
STPPSGKDKKAATGE	268
GKDKKPAAGGAPSPS	100
DNKTATGGAPSPPGA	217
PSGKEKKPATGETPS	268
GKENKPAAGGAPSQP	119
DKKAAAGGAPSPSGA	113
ENKAATGGAPSQPGA	300
PPSGTEKKPATGEAP	466
GKEKKAATGETPSPP	190
GKDKKPAAGETPSPS	108
STPPSGKDNKTATGG	294
SGTENKPAAGGTPSQ	477
GTEKKPATGEAPSPS	244
GTEKKPATGGTPSQP	214
GKENKAAAGEAPSPP	110
KEKKPATGEAPSPPG	145
GTDNKTATGGAPSPP	206

Sequence	antibody binding signal
TDNKPAAGGAPSPSG	280
KKAAAGGTPSQPGAS	111
SGTDKKPAAGEAPSP	301
GTDNKAATGETPSQS	124
PSGKDKKPAAGGAPS	102
ENKAAAGETPSQPGA	289
PPSGKDNKPAAGEAP	331
GTEKKPAAGETPSQS	566
TPPSGKEKKTATGGA	160
GKEKKPATGGAPSQS	86.4
GTENKPAAGEAPSQS	106
TPPSGTDNKAATGEA	164
TEKKPATGEAPSQSG	289
TENKAAAGEAPSPPG	74.5
TPPSGKEKKPATGGA	256
KDKKTAAGEAPSQPG	570
SGTENKAATGGAPSQ	198
GTEKKPATGGAPSQP	134
DKKTAAGETPSQSGA	482
KEKKPAAGEAPSQPG	84.1
